Source: PubChem BioAssay AID588855 (National Center for Advancing Translational Sciences (NCATS), 2011)
“And” between values parts separate entries of the source, which are not always exact repeats. Equal values may be shown once. Screen size: about 410,000 compounds; about 5,000 (1.2%) were called active. The shares of active, inactive and inconclusive entries below differ from those in the screen. Calls come from the whole dose curve; as a rule, active = well fitted inhibition curve with a large enough effect; inconclusive = small, poorly fitted or top-dose-only effect; inactive = no such curve, though single readings can be large or run the other way. A potency beside an inconclusive call is a rough fit, not a confirmed value.
% is set by controls: 0 for no effect and ±100 for the full control effect; potency is the fitted concentration of half-maximal effect; tags give direction and shape of the fitted curve.

Experiment: qHTS for Inhibitors of TGF-b; note: nearly all actives have a fitted effect of over 65% in size
Conditions: HepG2 CAGA-GFP TGF-b/SMAD3 reporter, GFP fluorescence, 18 h, TGF-beta stimulated, 500 pg/mL final; series mostly up to 46.1 µM; activity, negative = inhibition: at the top concentration
How it was run: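 Per well, imaged GFP fluorescence of HEPG2 CAGA-GFP cells gives the signal; cells get compound, then TGF-beta (500 pg/mL final), 18 h at 37 degrees C; %Activity versus -TGF-beta and +DMSO controls.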
With `Cc1nn(-c2ccccc2)c2c1C(c1ccc([N+](=O)[O-])cc1)N1C(=N2)C(=O)Nc2ccccc21` (stereo not drawn) the Potency was inconclusive: 15.8 µM [inhibitor, single point]. In the case of `O=C(CCC1N=C2c3ccccc3N=C(SCc3cccc(Cl)c3)N2C1=O)NCCc1ccccc1` (stereo not drawn), the Potency is reported as inconclusive: 25.1 µM [inhibitor, single point]. In the case of `CC(C)(C)OC(=O)N(Cc1ccccc1)Cc1cccc(OCc2cccc(NC(=O)C3CC3)c2)c1`, the Potency is reported as inconclusive: 3.98 µM [inhibitor, full curve, poor fit]. With `CCOC(=O)c1c(NC(=O)CSc2nnc(-c3c[nH]c4ccccc34)n2CCOC)sc2c1CCCC2` the “activity, negative = inhibition” value was inactive: -28.1%. With `Cc1cc(=O)oc2c(N)nccc12` the Potency was inconclusive: 35.5 µM [inhibitor, single point]. In the case of `COc1ccc(NC(=O)CSc2cn(CCNC(=O)c3ccc(OC)cc3)c3ccccc23)cc1`, the Potency is reported as inconclusive: 20 µM [inhibitor, partial curve, poor fit]. For `O=C(COc1ncnc2cc([N+](=O)[O-])ccc12)NC(=O)NC1CCCCC1`, the Potency was inconclusive: 31.6 µM [inhibitor, single point]. For `Cc1cc(NC(=O)/C(C#N)=C/c2ccc(-c3ccc(SC(F)F)cc3)o2)n(-c2ccccc2)n1`, the “activity, negative = inhibition” value was inactive: 6.41%. With `Cc1ccc(-c2cnc(C(O)c3cc(F)cc(Cl)c3)[nH]2)cc1` (stereo not drawn) the Potency was inconclusive: 35.5 µM [inhibitor, partial curve, poor fit]. With `CC(OC(=O)Cc1c[nH]c2ccccc12)C(=O)c1ccccc1` (stereo not drawn) the “activity, negative = inhibition” value was inactive: -1.36%. For `Cc1nc(-c2ccc(Cl)cc2)sc1C(=O)CBr`, the Potency was inconclusive: 35.5 µM [inhibitor, single point]. For `Nc1nc(COc2ccc(F)cc2)nc(N2CCCCC2)n1`, the Potency was inconclusive: 35.5 µM [inhibitor, single point]. For `O=C(COc1ccc2ccccc2c1Br)NNC(=O)Nc1ccccc1`, the “activity, negative = inhibition” value was inactive: -24.8%. For `CCOc1ccc2c(C)nc(NC3=NC(C)(C)C=C(C)N3)nc2c1`, the Potency was inconclusive: 22.4 µM [inhibitor, single point]. For `Cc1onc(-c2ccccc2)c1C(=O)NNC(=S)NC(=O)c1ccc(Cl)cc1Cl`, the Potency was inconclusive: 25.1 µM [inhibitor, single point]. In the case of `CC(/C=N/NC(=O)c1ccc(CN2c3cccc4cccc(c34)S2(=O)=O)cc1)c1ccccc1` (stereo not drawn), the Potency is reported as inconclusive: 5.01 µM [inhibitor, full curve, poor fit]. For `Cc1cc(C(=O)N/N=C/c2ccncc2)c2ccccc2n1`, the “activity, negative = inhibition” value was inactive: 3.16%. In the case of `CCOc1ccc(Nc2nc(N)nc(CCl)n2)cc1`, the Potency is reported as active: 11.2 µM. For `CCN(CC)c1ccc(/C=N/Nc2nc3ccccc3[nH]2)c(O)c1`, the Potency was active: 15.8 µM. For `COc1ccc(Cc2c(C3CCCCC3)nc3ccc(Cl)cn23)c(C)c1`, the Potency was inconclusive: 6.31 µM [inhibitor, partial curve, poor fit]. For `CC1CCCCC1NC(=O)CCNS(=O)(=O)c1cc(Br)cnc1N` (stereo not drawn), the Potency was inconclusive: 6.31 µM [inhibitor, single point]. With `O=C1Nc2ccc(Br)cc2/C1=C/C(=O)c1ccccc1` the Potency was inconclusive: 0.112 µM [inhibitor, full curve, poor fit]. With `CCOC(=O)c1c(C)c(C(=O)NCCCOC(C)C)c(C)n1C` the Potency was inconclusive: 0.178 µM [inhibitor, full curve, poor fit]. With `COC(=O)c1sccc1NC(=O)CC1C(=O)NCCN1C(=O)Nc1cc(Cl)ccc1OC` (stereo not drawn) the “activity, negative = inhibition” value was inactive: -2.38%. In the case of `S=C1Nc2ccccc2CS1`, the “activity, negative = inhibition” value is reported as inactive: 3.77%. In the case of `CCc1ccccc1N(C)C(=O)c1cc2c(Cl)nc3ccc(C)cc3c2s1`, the “activity, negative = inhibition” value is reported as inactive: -10.1%. For `O=C(CCCCCBr)N1CCC(CC2CC(c3ccc(Cl)cc3)=NO2)(C(=O)NCC2CCCCC2)CC1` (stereo not drawn), the “activity, negative = inhibition” value was inactive: -6.78%. In the case of `COc1ccccc1NC(=O)c1cc(S(=O)(=O)N2CCC3(CC2)OCCO3)ccc1F`, the “activity, negative = inhibition” value is reported as inactive: -8.46%. For `COc1ccc(OC)c(CCNC(=O)c2cc3cccc4c3n2CCS4)c1`, the Potency was inconclusive: 22.4 µM [inhibitor, single point]. In the case of `CCOCC(=O)Nc1cc(C(=O)OC)cc(C(=O)OC)c1`, the Potency is reported as inconclusive: 6.31 µM [inhibitor, partial curve, poor fit]. With `O=C(N[C@@H]1CCC(=O)N(CC[C@H](Sc2ccc(Br)cc2)c2ccccc2)CC1)OCc1ccccc1` the Potency was inconclusive: 35.5 µM [inhibitor, single point] and inconclusive: 631 nM [inhibitor, full curve, poor fit]. For `CCOc1ccc(/C=N/NC(=O)c2ccccc2NC(=O)c2ccc(OC)cc2)cc1`, the “activity, negative = inhibition” value was inactive: 4.14%. In the case of `CCN(Cc1ccccc1)S(=O)(=O)c1ccc(C(=O)Nc2nnc(C3CC3)o2)cc1`, the “activity, negative = inhibition” value is reported as inactive: -12.4%. For `CCOC(=O)N1CCN(S(=O)(=O)c2ccc(C(=O)Nc3nc4ccc(F)cc4s3)cc2)CC1`, the Potency was inconclusive: 35.5 µM [inhibitor, single point]. For `Cc1cc(C)n(CC(=O)NNC(=O)c2cccc(C(F)(F)F)c2)n1`, the “activity, negative = inhibition” value was inactive: 0.0689%. In the case of `O=C(COC(=O)CNC(=O)c1cccc(F)c1)NCCC1=CCCCC1`, the “activity, negative = inhibition” value is reported as inactive: -16.9%. With `Cc1ccc(C(=O)N2CCCC(CCC(=O)N3CCN(c4ccccn4)CC3)C2)s1` (stereo not drawn) the Potency was inconclusive: 25.1 µM [inhibitor, single point]. In the case of `COc1cc(C(=S)N2CCC(Cc3ccccc3)CC2)ccc1OCC(N)=O`, the Potency is reported as inconclusive: 22.4 µM [inhibitor, single point]. For `Cc1cc(C)c(NC(=S)NC(NC(=O)c2ccccc2)C(Cl)(Cl)Cl)c(C)c1` (stereo not drawn), the Potency was inconclusive: 35.5 µM [inhibitor, single point]. In the case of `CCc1nc2c(OCc3ccc(C(F)(F)F)cc3)cccn2c1N(C)C(=O)c1ccc(C)cc1`, the Potency is reported as inconclusive: 22.4 µM [inhibitor, single point]. In the case of `O=C(NCc1cccnc1)[C@@H]1CC=C[C@@H]2CCN(Cc3ccc(Cl)c(Cl)c3)C(=O)[C@@H]21`, the Potency is reported as active: 11.2 µM. With `O[C@@H]1C[C@H](c2ccccc2)N(CC2CCCCC2)C[C@H]1n1cc(C2CC2)nn1` the “activity, negative = inhibition” value was inactive: -15.3%. In the case of `CCCCn1nnnc1C(c1ccnc2ccccc12)N1CCN(C/C=C/c2ccccc2)CC1` (stereo not drawn), the Potency is reported as inconclusive: 35.5 µM [inhibitor, single point].
